Results as given in EPA's CvTdb concentration-time database.
This continues a long series; more values of the same kind are listed elsewhere.

Experiments:
Test in all cases: concentration in plasma after dosing
Rat [1] = details: dosed: Dibromoacetic acid, 125 mg/kg, oral, Female, Harlan Sprague Dawley
Rat [2] = details: dosed: Dibromoacetic acid, 125 mg/kg, oral, Female, Harlan Sprague Dawley; remark: listed apart in the source
Rat [3] = details: dosed: Dibromoacetic acid, 125 mg/kg, oral, Female, Harlan Sprague Dawley; remark: listed apart in the source
Rat [4] = details: dosed: Dibromoacetic acid, 125 mg/kg, oral, Male, F344
Rat [5] = details: 0.5 h; dosed: Dibromoacetic acid; 25 mg/kg; iv; Male; F344
Rat [6] = details: dosed: Dibromoacetic acid, 25 mg/kg, iv, Female, F344
Rat [7] = details: dosed: Dibromoacetic acid, 50 mg/kg, oral, Female, Harlan Sprague Dawley
Rat [8] = details: dosed: Dibromoacetic acid, 25 mg/kg, iv, Female, F344; remark: listed apart in the source
Rat [9] = details: dosed: Dibromoacetic acid, 125 mg/kg, oral, Female, Harlan Sprague Dawley; remark: listed apart in the source
Rat [10] = details: dosed: Dibromoacetic acid, 50 mg/kg, oral, Female, Harlan Sprague Dawley; remark: listed apart in the source
Rat [11] = details: dosed: Dibromoacetic acid, 50 mg/kg, oral, Female, Harlan Sprague Dawley; remark: listed apart in the source
Rat [12] = details: dosed: Dibromoacetic acid, 50 mg/kg, oral, Male, Harlan Sprague Dawley
Rat [13] = details: dosed: Dibromoacetic acid, 25 mg/kg, iv, Female, F344; remark: listed apart in the source
Rat [14] = details: dosed: Dibromoacetic acid, 25 mg/kg, iv, Female, F344; remark: listed apart in the source
Rat [15] = details: dosed: Dibromoacetic acid, 50 mg/kg, oral, Female, Harlan Sprague Dawley; remark: listed apart in the source
Rat [16] = details: 5 min; dosed: Dibromoacetic acid; 125 mg/kg; oral; Male; F344
Rat [17] = details: dosed: Dibromoacetic acid, 25 mg/kg, iv, Female, F344; remark: listed apart in the source
Rat [18] = details: dosed: Potassium Perfluorobutane Sulfonate, 100 mg/kg, oral, Male, Harlan Sprague Dawley
Rat [19] = details: dosed: Potassium Perfluorobutane Sulfonate, 100 mg/kg, oral, Male, Harlan Sprague Dawley; remark: listed apart in the source
Rat [20] = details: dosed: Potassium Perfluorobutane Sulfonate, 100 mg/kg, oral, Female, Harlan Sprague Dawley
Rat [21] = details: 6 h; dosed: Potassium Perfluorobutane Sulfonate; 20 mg/kg; oral; Female; Harlan Sprague Dawley
Rat [22] = details: 0.75 h; dosed: Potassium Perfluorobutane Sulfonate; 20 mg/kg; oral; Female; Harlan Sprague Dawley
Rat [23] = details: dosed: Potassium Perfluorobutane Sulfonate, 20 mg/kg, oral, Female, Harlan Sprague Dawley
Rat [24] = details: dosed: Potassium Perfluorobutane Sulfonate, 100 mg/kg, oral, Male, Harlan Sprague Dawley; remark: listed apart in the source
Rat [25] = details: 1.5 h; dosed: Potassium Perfluorobutane Sulfonate; 4 mg/kg; oral; Female; Harlan Sprague Dawley
Rat [26] = details: 0.5 h; dosed: Potassium Perfluorobutane Sulfonate; 20 mg/kg; oral; Male; Harlan Sprague Dawley
Rat [27] = details: 1 h; dosed: Potassium Perfluorobutane Sulfonate; 20 mg/kg; oral; Female; Harlan Sprague Dawley
Rat [28] = details: 1 h; dosed: Potassium Perfluorobutane Sulfonate; 20 mg/kg; oral; Male; Harlan Sprague Dawley
Rat [29] = details: 0.25 h; dosed: Potassium Perfluorobutane Sulfonate; 20 mg/kg; oral; Female; Harlan Sprague Dawley
Rat [30] = details: dosed: Potassium Perfluorobutane Sulfonate, 20 mg/kg, oral, Female, Harlan Sprague Dawley; remark: listed apart in the source
Rat [31] = details: 3 h; dosed: Potassium Perfluorobutane Sulfonate; 20 mg/kg; oral; Male; Harlan Sprague Dawley
Rat [32] = details: dosed: Potassium Perfluorobutane Sulfonate, 4 mg/kg, oral, Female, Harlan Sprague Dawley
Rat [33] = details: 12 h; dosed: Potassium Perfluorobutane Sulfonate; 20 mg/kg; oral; Female; Harlan Sprague Dawley
Rat [34] = details: dosed: Potassium Perfluorobutane Sulfonate, 100 mg/kg, oral, Male, Harlan Sprague Dawley; remark: listed apart in the source
Rat [35] = details: 6 h; dosed: Potassium Perfluorobutane Sulfonate; 20 mg/kg; oral; Male; Harlan Sprague Dawley
Rat [36] = details: 1 h; dosed: Potassium Perfluorobutane Sulfonate; 100 mg/kg; oral; Female; Harlan Sprague Dawley

O=C(O)C(Br)Br [Dibromoacetic acid]
Details	concentration in plasma [µg/mL]
Rat [1], 0.5 h	88.6
Rat [1], 6 h	0.819
Rat [2], 0.5 h	74.8
Rat [2], 6 h	2.53
Rat [3], 0.75 h	88.3
Rat [3], 4 h	9.39
Rat [4], 3 h	21.7
Rat [4], 20 min	61.3
Rat [6], 0.2 h	32
Rat [6], 55 min	3.08
Rat [7], 0.75 h	23.3
Rat [7], 4 h	1.7
Rat [8], 0.2 h	29.1
Rat [8], 55 min	2.75
Rat [9], 3 h	7.15
Rat [9], 20 min	92.9
Rat [10], 0.5 h	33.1
Rat [10], 6 h	0.312
Rat [11], 0.5 h	38.2
Rat [11], 6 h	0.351
Rat [12], 0.75 h	25.6
Rat [12], 4 h	2.02
Rat [13], 2 min	67.6
Rat [13], 40 min	5.21
Rat [14], 7 min	37.4
Rat [14], 50 min	3.31
Rat [15], 0.75 h	29.5
Rat [15], 4 h	1.7
Rat [17], 1 h	3.19
Rat [17], 20 min	22.1

Details	concentration in plasma [µg/mL]
Rat [5]	12.2
Rat [16]	45.8

O=S(=O)([O-])C(F)(F)C(F)(F)C(F)(F)C(F)(F)F.[K+] [Potassium Perfluorobutane Sulfonate]
Details	concentration in plasma
Rat [18], 1 h	207 µg/mL
Rat [18], 24 h	1.61 µg/mL
Rat [19], 0.75 h	247 µg/mL
Rat [19], 12 h	31.4 µg/mL
Rat [20], 3 h	75200 ng/mL
Rat [20], 5 min	21700 ng/mL
Rat [23], 0.25 h	29400 ng/mL
Rat [23], 24 h	114 ng/mL
Rat [24], 0.75 h	181 µg/mL
Rat [24], 12 h	21.5 µg/mL
Rat [30], 5 min	2800 ng/mL
Rat [30], 9 h	1570 ng/mL
Rat [32], 0.25 h	6250 ng/mL
Rat [32], 6 h	350 ng/mL
Rat [34], 0.25 h	116 µg/mL
Rat [34], 6 h	68.7 µg/mL

Details	concentration in plasma
Rat [21]	587 ng/mL
Rat [22]	43700 ng/mL
Rat [25]	7940 ng/mL
Rat [26]	39600 ng/mL
Rat [27]	27600 ng/mL
Rat [28]	69.4 µg/mL
Rat [29]	35900 ng/mL
Rat [31]	56.6 µg/mL
Rat [33]	40.1 ng/mL
Rat [35]	37600 ng/mL
Rat [36]	134 µg/mL
